{"source": "patent US20100240080", "target": "T1, Abl 1 substrate, SEQ ID NO: 3 (EAEAIYAAPGDK), modified with 7-hydroxycoumarin and 5-FAM", "T1 chain": "EAEAIYAAPGDK", "data": [{"protein": "Abl 1 kinase (protein) MLEICLKLVGCKSKKGLSSSSSCYLEEALQRPVASDFEPQGLSEAARWNSKENLLAGPSE[about 60 residues not given here]LEKHSWYHGPVSRNAAEYLLSSGINGSFLVRESESSPGQRSISLRYEGRVYHYRINTASDGKLYVSSESRFNTLAELVHHHSTVADGLITTLHYPAPKRNKPTVYGVSPNYDKWEMERTDITMKHKLGGGQYGEVYEGVWKKYSLTVAVKTLKEDTMEVEEFLKEAAVMKEIKHPNLVQLLGVCTREPPFYIITEFMTYGNLLDYLRECNRQEVNAVVLLYMATQISSAMEYLEKKNFIHRDLAARNCLVGENHLVKVADFGLSRLMTGDTYTAHAGAKFPIKWTAPESLAYNKFSIKSDVWAFGVLLWEIATYGMSPYPGIDLSQVYELLEKDYRMERPEGCPEKVYELMRACWQWNPSDRPSFAEIHQAFETMFQESSISDEVEKELGKQGVRGAVSTLLQAPELPTKTRTSRRAAEHRDTTDVPEMPHSKGQGESDPLDHEPAVSPLLPRKERGPPEGGLNEDERLLPKDKKTNLFSALIKKKKKTAPTPPKRSSSFREMDGQPERRGAGEEEGRDISNGALAFTPLDTADPAKSPKPSNGAGVPNGALRESGGSGFRSPHLWKKSSTLTSSRLATGEEEGGGSSSKRFLRSCSASCVPHGAKDTEWRSVTLPRDLQSTGRQFDSSTFGGHKSEKPALPRKRAGENRSDQVTRGTVTPPPRLVKKNEEAADEVFKDIMESSPGSSPPNLTPKPLRRQVTVAPASGLPHKEEAGKGSALGTPAAAEPVTPTSKAGSGAPGGTSKGPAEESRVRRHKHSSESPGRDKGKLSRLKPAPPPPPAASAGKAGGKPSQSPSQEAAGEAVLGAKTKATSLVDAVNSDAAKPSQPGEGLKKPVLPATPKPQSAKPSGTPISPAPVPSTLPSASSALAGDQPSSTAFIPLISTRVSLRKTRQPPERIASGAITKGVVLDSTEALCLAISRNSEQMASHSAVLEAGKNLYTFCVSYVDSIQQMRNKFAFREAINKLENNLRELQICPATAGSGPAATQDFSKLLSSVKEISDIVQR", "values": [{"measurement": "% Phosphorylation at 0.50 ng Abl 1 kinase per well", "value": 10, "unit": "%"}, {"measurement": "% Phosphorylation at 0.75 ng Abl 1 kinase per well", "value": 15, "unit": "%"}, {"measurement": "% Phosphorylation at 1.00 ng Abl 1 kinase per well", "value": 23, "unit": "%"}, {"measurement": "% Phosphorylation at 1.30 ng Abl 1 kinase per well", "value": 30, "unit": "%"}, {"measurement": "% Phosphorylation at 1.50 ng Abl 1 kinase per well", "value": 35, "unit": "%"}, {"measurement": "% Phosphorylation at 2.00 ng Abl 1 kinase per well", "value": 46, "unit": "%"}, {"measurement": "% Phosphorylation at 2.50 ng Abl 1 kinase per well", "value": 53, "unit": "%"}, {"measurement": "% Phosphorylation at 3.00 ng Abl 1 kinase per well", "value": 61, "unit": "%"}, {"measurement": "% Phosphorylation at 3.50 ng Abl 1 kinase per well", "value": 79, "unit": "%"}]}]}
